From PMC5386880
These are yes or no findings as the source states them, for the method shown. For part of these data: In cells and extracts the contact can be indirect. Some binding calls cover weakened binding; strength is not graded here. Where a sequence is shown, tags or fusion partners need not be part of it.

Amino acid sequences for entries named in this document (tags omitted).
UniProt P51140: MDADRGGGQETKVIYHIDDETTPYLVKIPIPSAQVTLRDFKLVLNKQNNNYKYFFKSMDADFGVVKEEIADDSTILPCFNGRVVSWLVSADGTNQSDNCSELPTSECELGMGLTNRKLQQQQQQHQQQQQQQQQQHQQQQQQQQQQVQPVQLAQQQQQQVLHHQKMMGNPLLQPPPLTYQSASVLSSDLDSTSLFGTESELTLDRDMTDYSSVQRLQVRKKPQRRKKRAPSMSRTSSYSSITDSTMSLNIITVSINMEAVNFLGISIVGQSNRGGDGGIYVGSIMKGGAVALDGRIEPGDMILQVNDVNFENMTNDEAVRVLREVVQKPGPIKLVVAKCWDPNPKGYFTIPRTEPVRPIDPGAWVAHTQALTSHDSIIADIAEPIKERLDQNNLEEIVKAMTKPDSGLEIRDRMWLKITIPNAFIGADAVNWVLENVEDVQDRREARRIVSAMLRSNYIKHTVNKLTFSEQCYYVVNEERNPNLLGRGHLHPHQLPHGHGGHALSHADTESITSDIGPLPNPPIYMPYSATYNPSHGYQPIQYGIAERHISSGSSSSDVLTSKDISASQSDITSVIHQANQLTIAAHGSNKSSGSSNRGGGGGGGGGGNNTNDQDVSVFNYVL

Columns and labels:
[1] = biological target: T1, human WDPCP (frtz homolog), yeast two-hybrid fusion (human) (UniProt O95876); assay: two-hybrid; yeast strain AH109, Matchmaker Two-Hybrid System 3 (pGADT7 and pGBKT7 cotransformed); growth on SD/-Ade/-His/-Leu/-Trp with X-alpha-Gal taken as positive
T1 sequence: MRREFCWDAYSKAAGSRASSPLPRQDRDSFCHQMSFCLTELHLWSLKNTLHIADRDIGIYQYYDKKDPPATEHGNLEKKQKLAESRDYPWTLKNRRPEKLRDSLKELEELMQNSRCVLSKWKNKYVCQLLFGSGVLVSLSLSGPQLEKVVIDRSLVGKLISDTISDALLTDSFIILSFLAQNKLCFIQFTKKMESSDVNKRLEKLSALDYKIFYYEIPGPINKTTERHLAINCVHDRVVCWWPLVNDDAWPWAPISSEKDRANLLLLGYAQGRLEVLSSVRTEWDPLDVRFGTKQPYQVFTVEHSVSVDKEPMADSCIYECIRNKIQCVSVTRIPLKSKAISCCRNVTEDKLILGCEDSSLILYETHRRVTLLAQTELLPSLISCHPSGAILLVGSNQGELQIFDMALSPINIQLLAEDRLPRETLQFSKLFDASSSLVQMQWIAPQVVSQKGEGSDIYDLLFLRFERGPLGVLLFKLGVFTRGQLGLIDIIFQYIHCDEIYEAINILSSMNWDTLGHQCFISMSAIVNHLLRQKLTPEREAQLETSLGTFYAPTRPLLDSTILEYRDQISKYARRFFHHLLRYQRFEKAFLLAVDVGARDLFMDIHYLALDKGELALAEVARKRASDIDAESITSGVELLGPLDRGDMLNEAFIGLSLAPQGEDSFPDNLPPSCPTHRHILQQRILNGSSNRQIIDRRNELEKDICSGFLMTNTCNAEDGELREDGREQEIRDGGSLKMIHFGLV

[2] = biological target: Dsh-myc (dsh-myc transgene) (Drosophila) (UniProt P51140); assay: co-IP; 150-200 third instar wing discs of transgenic flies; lysis buffer 50 mM Tris HCl pH 7.5, 150 mM NaCl, 1% Nonidet P40, 0.5% deoxycholate; antibody (rabbit GFP or rabbit Myc) and protein A agarose; western blot
[3] = biological target: Dishevelled (Dsh), full length, yeast two-hybrid fusion (Drosophila) (UniProt P51140); assay: two-hybrid; yeast strain AH109, Matchmaker Two-Hybrid System 3 (pGADT7 and pGBKT7 cotransformed); growth on SD/-Ade/-His/-Leu/-Trp with X-alpha-Gal taken as positive

B1: human Intu (in homolog), yeast two-hybrid fusion (protein, UniProt Q9ULD6 1-942)
chain: MASVASCDSRPSSDELPGDPSSQEEDEDYDFEDRVSDSGSYSSASSDYDDLEPEWLDSVQKNGELFYLELSEDEEESLLPETPTVNHVRFSENEIIIEDDYKERKKYEPKLKQFTKILRRKRLLPKRCNKKNSNDNGPVSILKHQSNQKTGVIVQQRYKDVNVYVNPKKLTVIKAKEQLKLLEVLVGIIHQTKWSWRRTGKQGDGERLVVHGLLPGGSAMKSGQVLIGDVLVAVNDVDVTTENIERVLSCIPGPMQVKLTFENAYDVKRETSHPRQKKTQSNTSDLVKLLWGEEVEGIQQSGLNTPHIIMYLTLQLDSETSKEEQEILYHYPMSEASQKLKSVRGIFLTLCDMLENVTGTQVTSSSLLLNGKQIHVAYWKESDKLLLIGLPAEEVPLPRLRNMIENVIQTLKFMYGSLDSAFCQIENVPRLDHFFNLFFQRALQPAKLHSSASPSAQQYDASSAVLLDNLPGVRWLTLPLEIKMELDMALSDLEAADFAELSEDYYDMRRLYTILGSSLFYKGYLICSHLPKDDLIDIAVYCRHYCLLPLAAKQRIGQLIIWREVFPQHHLRPLADSSTEVFPEPEGRYFLLVVGLKHYMLCVLLEAGGCASKAIGSPGPDCVYVDQVKTTLHQLDGVDSRIDERLASSPVPCLSCADWFLTGSREKTDSLTTSPILSRLQGTSKVATSPTCRRTLFGDYSLKTRKPSPSCSSGGSDNGCEGGEDDGFSPHTTPDAVRKQRESQGSDGLEESGTLLKVTKKKSTLPNPFHLGNLKKDLPEKELEIYNTVKLTSGPENTLFHYVALETVQGIFITPTLEEVAQLSGSIHPQLIKNFHQCCLSIRAVFQQTLVEEKKKGLNSGDHSDSAKSVSSLNPVKEHGVLFECSPGNWTDQKKAPPVMAYWVVGRLFLHPKPQELYVCFHDSVTEIAIEIAFKLFFGLTL
binding [1]: binds

B2: Frtz expressed from a UAS transgene driven by ptc-Gal4 (UAS-frtz in the legend, UAS-(myc)6-frtz in the methods) (protein, UniProt Q9VQ36 1-951)
chain: MLLSETHFWTTLREDVVRIKSQDLGAFRYLRQRDKEQEQQDLACLAKRDYTERRNGLAVLKNSGRKSTGRLKDNLKKLEDLLRQHRIIHSEWQDAAQVLLLFSHGLIAHICVDIYTGDILRMVFEKYLVGKLASEVITDAFFTRSHIVLAYNTNQLTVVHLQRPNARSQGPEKIANMDPRIFHVIIPGATERKLSRHLTVNASFDLFVVWTQSSQNEVYPWRPTIRDQDRANIHVFKIKGLQLESIAYCWSENDPLCVDFLRSSESQIITLEQKVSRKGDISAEICSYELAAGKMQRTAITSIPMGAQICSFAFSPDQEKLFLGSVDRNICLHDLVQQSTKYANQIEIVPNQCAWHCDSAMLCVANERSVLQCFDLALATIGHQLVSENVTPSSLLDLSHYFVAQPTLLSVAFSRKPDLSTFKHTYAQTDCLLLLVYEQGPLACMRIFGGTGMRGDIHNSGLTADVIADKYLRLQQPDRAVNVLAALNWETYGAMCLITLHKIANYVFFGGDQRRPRIELMARALKTFAHTLSEETKDEFSDQVYDLKRRFCFYLLRKNLFAEAFEIAQDVADYDIFMDLYNLTKCISSLSEFAQVAFSQAAAIIHEEDRANGNLSLTCDLRSESACSLSTCSDMLRGQGAGTAPETGLGASQPQSQQVLKNYVPPLPSFKSKVFNAEMIKINIPKPELRPPLPKVSIAPPTSSLASLTLKSNSSLQQAPAKSLHPNGNLWSQDVPDQTVGLPMASSPLPRLPPSNIPDQSAQLGQFSTMPASPPPTGSYQPKFYQHPLVSGNIPAMLPSLTSEDYQKRLLQKKPTASILSNPANPAPTNGEAPATPAKSQTAEKNKVKFSDTIQVAVVPEIPRKEKPMPPKRNGYSRPAARHLTNPKKELADSLPLCHPNDEYLKDFNPITTNVTKPPIRRREEEPKSSSKGGNSSSSSSSIKVVHFGVV
binding [2]: binds

B3: Inturned (In), yeast two-hybrid fusion (protein, UniProt Q9VPH0 1-869)
chain: MRKSPASLPSEAFSSSNSSLSNSYSDGSDLANWEEYVSTDGSLFYMEYVRCEKTGVSAERRVEFMRRSLRLGKKSSRRQPHSNNQNQSQNQNQSHGPSRLDSQTEPQEFRFSQFKTAAPDPKKLDLVITAADRFRFGRRSTAVESILGFRVLPFPDQPECLMVDGFVHDVSALQHGIKRGDWFRSLNGIEVYASNVDELLKQFVEPTQVCLGFQSCGAASAVSPTDPGYNRNVREEQVCKVENFPMFTEKFEQMLITEGNFGIPGSSVDIRMPFAMLLLPPECYQHEQQQDSLYYFPEIPDNFLFKARGSFLTLHAVLSELHTQPLSSRLLVDQVQYHVNYRQLNGFLVLFAYAGGLCCAAECSLRSDELIGYIRFSLPGLVLESFNQEREPGNSSRLKLFLRHFCEIQRTRLVARCHGHIRFEELLGQSRSLPLPKEAQLRIFDALSEMEAMDYRNWNDEPLTTHREFFIYGSALYYDGFLVASLLPPEVRVSVEGFLRCRGIFELLGAAPGIKVREMYVWEEIVLPSATGRYFLTICTKNHLSLAVILKIFDAPDMAPDAVVGPSLFYIEEIQETLDHLVQCGIESLAMFWSVSNKRPEVLDATASESRDQEKEPNNRLESFLKQKLTVLSPSVEEEAQLCSSLGGSSIHSLTPSEDESCRRRLTPIHGTAEDSDSGSDWENFAVQHPLHYGLNLGAESHSQSQMTESMWKEINNVVPVKISAGWKNSVLHYVYIDIANGSLFAPFTDSSENSNYLSEIRQACHIIHAVLQKSKHYRRHLSESSRAQTNSNGHSSHTVSLVKEHGMILEVSTQPKSDGQSQSSTSSRFVVVGRLFQSPAKEVYVCHRSDVPQNIVEMAFRLSFFSMG
binding [3]: no binding
